# Data taken from PubChem BioAssay AID1460 (National Center for Advancing Translational Sciences (NCATS), 2008).
# About 5,800 (2.1%) of roughly 270,000 compounds were called active. Inconclusive means that the source gave no clear call. Such entries were picked first, then a sample of the others. The call rests on the fitted dose curve; in most records, active means well fitted inhibition curve with a large enough effect; inconclusive means small, poorly fitted or top-dose-only effect; inactive means flat fitted curve, though single readings scatter. Potencies of inconclusive entries are doubtful fits and often do not repeat.
# Target: Microtubule-associated protein tau (Homo sapiens) (UniProt P10636)
# Experiment: qHTS for Inhibitors of Tau Fibril Formation, Thioflavin T Binding; further: nearly all actives have a fitted effect of over 55% in size
# Conditions: recombinant tau K18 P301L, heparin-induced fibrillization, ThT fluorescence; series mostly up to 57.4 µM
# Summary of the method: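 ThT emission at 510 nm, taken 1 hr after adding 30 uM dye, quantifies aggregates formed when 20 uM heparin acts on human tau K18 P301L for 6 hr at 37 C.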
# On the % scale 0 is the no-effect control and ±100 the full control effect; potency means the concentration at half of the fitted maximal effect; tags describe the fitted curve by direction and shape.
# Sequence of UniProt P10636 (P10636 whole entry, looked up): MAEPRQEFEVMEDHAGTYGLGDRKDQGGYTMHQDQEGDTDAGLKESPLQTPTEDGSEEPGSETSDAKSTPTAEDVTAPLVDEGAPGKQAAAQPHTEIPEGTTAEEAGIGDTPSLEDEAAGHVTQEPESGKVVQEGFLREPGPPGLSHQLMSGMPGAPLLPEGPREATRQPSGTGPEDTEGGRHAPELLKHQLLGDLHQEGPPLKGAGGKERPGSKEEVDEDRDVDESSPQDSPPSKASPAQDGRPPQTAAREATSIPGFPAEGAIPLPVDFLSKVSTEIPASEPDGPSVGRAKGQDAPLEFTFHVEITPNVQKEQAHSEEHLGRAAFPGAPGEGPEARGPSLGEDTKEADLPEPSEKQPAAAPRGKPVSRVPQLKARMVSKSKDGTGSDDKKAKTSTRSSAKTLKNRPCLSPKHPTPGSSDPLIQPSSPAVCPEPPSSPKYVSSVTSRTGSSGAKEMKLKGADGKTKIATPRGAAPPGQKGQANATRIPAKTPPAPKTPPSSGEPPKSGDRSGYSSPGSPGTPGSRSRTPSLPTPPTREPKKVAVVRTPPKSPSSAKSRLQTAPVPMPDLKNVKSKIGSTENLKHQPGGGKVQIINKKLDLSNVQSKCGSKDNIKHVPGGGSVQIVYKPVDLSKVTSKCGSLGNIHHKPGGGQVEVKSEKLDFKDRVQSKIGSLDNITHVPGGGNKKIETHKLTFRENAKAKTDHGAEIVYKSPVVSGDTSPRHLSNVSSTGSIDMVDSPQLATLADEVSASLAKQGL
SMILES,Potency,"activity, negative = inhibition"
O=C1c2cccc3c(N4CCCCC4)ccc(c23)C(=O)N1c1ccccc1O,"inconclusive: 15.8 µM [inhibitor, partial curve]",
Cc1ccc(C(=O)N2CCN(c3ccc([N+](=O)[O-])c(N4CCOCC4)c3)CC2)cc1,"inconclusive: 28.2 µM [inhibitor, partial curve]",
O=C(CSc1nc(-c2ccccc2)[nH]c1-c1ccccc1)Nc1ccc2c(c1)OCCO2,"inconclusive: 20 µM [inhibitor, partial curve]",
COc1cccc(/C=N/NC(=O)c2[nH]c(C)c(C(=O)N/N=C/c3cccc(OC)c3O)c2C)c1O,"inconclusive: 0.501 µM [inhibitor, full curve]",
CC(/C=C/c1ccco1)=N\NC(=O)CNc1cccc(C)c1,"inconclusive: 6.31 µM [inhibitor, full curve]",
CCOC(=O)C1=C(c2ccccc2)N=c2s/c(=C\c3cccc(O)c3)c(=O)n2C1c1cccs1 (stereo unspecified),"inconclusive: 14.1 µM [inhibitor, partial curve]",
CCCN(CCC)C(=O)Cc1coc2ccc3ccccc3c12,"inconclusive: 11.2 µM [inhibitor, partial curve]",
CCOC(=O)c1c(C)oc2c1c1c(c3ccccc32)OCN(CCCC(=O)O)C1,"inconclusive: 15.8 µM [inhibitor, partial curve]",
Cc1nc(N2CCCC2)c2c(C(=O)N3CCN(c4cccc(C)c4C)CC3)c(C)oc2n1,inactive,
CC(C)OC(=O)CC1C(=O)NCCN1C(=S)NC(=O)c1ccc(F)cc1 (stereo unspecified),"inconclusive: 28.2 µM [inhibitor, partial curve, poor fit]",
Cc1ccnc(NC(c2ccccc2O)c2oc(CO)cc(=O)c2O)c1 (stereo unspecified),"inconclusive: 14.1 µM [inhibitor, partial curve, poor fit]",
O=C(CSCc1ccc([N+](=O)[O-])cc1)Nc1cccc(C(=O)Nc2ccccc2C(=O)O)c1,"inconclusive: 28.2 µM [inhibitor, single point]",
O=C(COc1ccccc1)Nc1nnc(S(=O)(=O)N2CCCCCC2)s1,"inconclusive: 3.98 µM [inhibitor, partial curve]",
CCOc1cccc(NC(=O)Cc2cccs2)c1,inactive,
O=C1C(Nc2ccccc2)=CC(c2ccc(O)cc2)N1c1ccccc1 (stereo unspecified),"inconclusive: 28.2 µM [inhibitor, partial curve]",
CCC(C)N1C(=O)S/C(=C/c2ccc(N3CCOCC3)cc2C)C1=O (stereo unspecified),"inconclusive: 35.5 µM [inhibitor, single point]",
COc1ccc(-c2cc(OC)c3ccccc3n2)cc1,"inconclusive: 14.1 µM [inhibitor, partial curve]",
Cn1c(SCc2cnc(-c3ccccc3)s2)nnc1C1COc2ccccc2O1 (stereo unspecified),"inconclusive: 31.6 µM [inhibitor, partial curve]",
O=C(Cc1ccccc1)N(Cc1cccnc1)c1nc2ccc(F)cc2s1,inactive,
COc1cc(C2C(C#N)=C(N)OC3=C2C(=O)CC(C)(C)C3)cc([N+](=O)[O-])c1O (stereo unspecified),"inconclusive: 28.2 µM [inhibitor, partial curve, poor fit]",
Cc1ccc(C(=O)NC(=S)Nc2ccc(NC(=O)c3cccc(Cl)c3)cc2)cc1,"inconclusive: 1.58 µM [inhibitor, full curve, poor fit]",
Cc1nc(-c2cccc(S(=O)(=O)N3CC(C)OC(C)C3)c2)cs1 (stereo unspecified),inactive,

SMILES,Potency,"activity, negative = inhibition"
COc1ccc(/C(N)=N/OC(=O)c2cccc([N+](=O)[O-])c2C)cc1OC,"inconclusive: 17.8 µM [inhibitor, partial curve, poor fit]",
COCCN1C(=O)/C(=C/c2ccc(OCc3ccc(C(=O)O)cc3)c(OC)c2)SC1=Nc1ccccc1,"inconclusive: 25.1 µM [inhibitor, single point]",
COc1ccc(-c2coc3cc(OC(C)=O)cc(OC(C)=O)c3c2=O)cc1,inactive,
O=C(COC(=O)c1ccc2c(c1Cl)C(=O)c1ccccc1C2=O)NC1CC1,"inconclusive: 17.8 µM [inhibitor, partial curve]",
Cc1cccc(N(CC(=O)NCCSc2ccc(Cl)cc2)S(C)(=O)=O)c1C,inactive,
COc1ccc(C(=O)c2c(C(F)(F)F)oc3c2C(=O)c2ccccc2C3=O)cc1OC,inactive,
Cc1oc(C(C)(C)C)cc1C(=O)Nc1ccc2c(c1)OCCO2,"inconclusive: 28.2 µM [inhibitor, partial curve]",
CC(=O)CCc1oc2ccccc2c1-c1ccccc1,"inconclusive: 39.8 µM [inhibitor, single point]",
c1ccc2oc(-c3csc(N4CCOCC4)n3)cc2c1,"inconclusive: 14.1 µM [inhibitor, partial curve]",
CC1CCCN(C(C(=O)Nc2ccc(C(C)C)cc2)c2ccc3c(c2)OCO3)C1 (stereo unspecified),"inconclusive: 20 µM [inhibitor, partial curve]",
Cc1ccccc1C(=O)NC(=S)Nc1cccc(NC(=O)C(C)C)c1,inactive,
COc1ccc(CNC(=O)c2cc3c(=O)[nH]c4ccccc4c3n2C)c(OC)c1,"inconclusive: 6.31 µM [inhibitor, single point]",
Cc1ccc(SCC(=O)N(Cc2nc(-c3ccccc3)no2)C(C)C)cc1,"inconclusive: 8.91 µM [inhibitor, partial curve, poor fit]",
Cc1[nH]c(=O)c(C#N)c2c1CSC(C)(C)C2,inactive,
Cc1ccccc1/C=N/n1c(-c2ccccn2)n[nH]c1=S,inactive,
COc1ccc(OC)c(S(=O)(=O)N2CCC(C(=O)Nc3cc(C)ccc3C)CC2)c1,inactive,
CC(=O)Nc1ccc(NC(=O)C2CCN(C(=O)c3cccs3)CC2)cc1,inactive,
Cc1nc2ccc(NC(=O)/C=C/C(=O)O)cc2nc1C,inactive,
O=C(c1ccc2c(c1)N(Cc1cccc(Cl)c1)C(=O)c1ccccc1S2(=O)=O)N1CCCCCC1,inactive,
CCOc1cc(CNc2ccc(S(N)(=O)=O)cc2)cc(Cl)c1OC,inactive,
Cc1nc2cc(N)ccc2n1C1CCCCC1,"inconclusive: 7.08 µM [inhibitor, partial curve]",
COC(=O)Cc1[nH]n(-c2nc3ccccc3s2)c(=O)c1C(C)=Nc1ccc(Cl)cc1,"inconclusive: 14.1 µM [inhibitor, partial curve]",

SMILES,Potency,"activity, negative = inhibition"
CC(C)=NNc1nc(-c2ccccc2)cs1,inactive,
COc1ccc(NC(=O)/C(C#N)=C/c2ccc(Br)o2)cc1,"inconclusive: 0.447 µM [inhibitor, full curve]",
COc1cccc(-c2cn3c(n2)sc2cc(C(=O)NCCC4=CCCCC4)ccc23)c1,inactive,
Cc1ccc(-c2noc(CN3CCN(Cc4ccccc4)CC3)n2)cc1,"inconclusive: 31.6 µM [inhibitor, single point]",
CC(=O)N=c1sc2nc3ccccc3nc2n1N(C(C)=O)C(C)=O,"inconclusive: 25.1 µM [inhibitor, single point]",
CNC(=O)/C(C#N)=C/c1ccc(-c2ccc(Cl)cc2)o1,"inconclusive: 7.94 µM [inhibitor, full curve, poor fit]",
CCS(=O)(=O)c1ncc(Cl)c(C(=O)Nc2c(C(=O)c3ccc(C)cc3)oc3ccccc23)n1,"inconclusive: 8.91 µM [inhibitor, partial curve]",
C=CCC(C)(O)c1ccsc1 (stereo unspecified),inactive,
Cc1cccc(-c2nc(C)c(CCNC(=O)c3cccs3)s2)c1,"inconclusive: 11.2 µM [inhibitor, partial curve]",
O=C(NCC(c1cccnc1)N1CCc2ccccc2C1)C(=O)Nc1ccc(F)cc1F (stereo unspecified),"inconclusive: 0.891 µM [inhibitor, full curve]",
COC(=O)C1=C(C(=O)OC)[C@@H]2N(C)c3ccc(OC)cc3[C@@]23C[C@@H](C(=O)OC)N(S(=O)(=O)c2ccc(C#N)cc2)C3=N1,,inactive: -3.81% [at 11.5 µM]
CCNC(=S)N(CCc1ccccc1C)Cc1cc2cc(OC)c(OC)cc2[nH]c1=O,"inconclusive: 44.7 µM [inhibitor, single point]",
CCOc1ccc(Nc2nc(N)c([N+](=O)[O-])c(NCc3ccccc3)n2)cc1,"inconclusive: 15.8 µM [inhibitor, partial curve]",
Cc1ccc(Nc2nc(/N=C/N(C)C)n[nH]2)cc1C,"inconclusive: 15.8 µM [inhibitor, partial curve]",
COC(=O)/C=C1/SC(=Nc2ccc(Cl)c(Cl)c2)NC1=O,"inconclusive: 8.91 µM [inhibitor, partial curve]",
Cc1cccc(N2CN=c3s/c(=C\c4ccncc4)c(=O)n3C2)c1,"inconclusive: 22.4 µM [inhibitor, partial curve]",
Cc1csc(SCC(=O)c2ccc(S(=O)(=O)N3CCOCC3)cc2)n1,"inconclusive: 25.1 µM [inhibitor, single point]",
O=C(NNC(=O)c1cccs1)c1ccc(Cl)c([N+](=O)[O-])c1,"inconclusive: 17.8 µM [inhibitor, partial curve]",
CN1c2ccccc2C(C)(C)C12C=Nc1c(ccc3ccccc13)O2 (stereo unspecified),active: 31.6 µM,
COCCCNC(=O)C(C#N)c1nc2ccccc2nc1N1CCN(Cc2ccccc2)CC1 (stereo unspecified),"inconclusive: 15.8 µM [inhibitor, partial curve]",
O=C1CCC/C(=N\NC(=O)c2ccc(NS(=O)(=O)c3ccc(Br)cc3)cc2)C1,"inconclusive: 12.6 µM [inhibitor, partial curve, poor fit]",
O=C(/C(C=Nc1ccc(F)cc1)=C(/O)c1ccco1)C(F)(F)F,"inconclusive: 12.6 µM [inhibitor, partial curve]",
